Results taken from PMC4339810 (Scientific Reports, 2015).
These are yes or no findings as the source states them, for the method shown. For some of these results: Binding seen in cells or lysates may run through a third protein. Some entries that bind do so weakly or less than the wild type. Blank lines part the entries; values can stand above or below the molecule they belong to.

Chains of the proteins cited; added tags and fusions are not shown. Lines headed by an entry give the natural chain unless they say otherwise; changes in a name come on top. Residues count along the entry.
UniProt P06748: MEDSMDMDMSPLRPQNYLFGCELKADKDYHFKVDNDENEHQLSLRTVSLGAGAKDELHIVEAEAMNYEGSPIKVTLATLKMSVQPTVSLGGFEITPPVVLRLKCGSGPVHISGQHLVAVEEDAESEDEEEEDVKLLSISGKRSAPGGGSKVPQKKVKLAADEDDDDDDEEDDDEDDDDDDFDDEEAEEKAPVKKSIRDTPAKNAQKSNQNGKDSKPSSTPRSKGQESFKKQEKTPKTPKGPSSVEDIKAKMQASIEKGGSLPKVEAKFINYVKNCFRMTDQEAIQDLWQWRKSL
GST-NPM1 1-117: residues 1-117 of P06748
GST-NPM1 187-295: residues 187-294 of P06748
GST-NPM1 260-295: residues 260-294 of P06748

T1: HMGA1a 1-51 (UniProt P17096)
T1 sequence: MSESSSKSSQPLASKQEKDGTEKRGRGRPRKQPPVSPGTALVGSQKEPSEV

B1: recombinant HMGA1a (natural protein, UniProt P17096-1 1-107, looked up)
chain: MSESSSKSSQPLASKQEKDGTEKRGRGRPRKQPPVSPGTALVGSQKEPSEVPTPKRPRGRPKGSKNKGAAKTRKTTTTPGRKPRGRPKKLEKEEEEGISQESSEEEQ
notes: HMGA1a, isoform of HMGA1 from alternative splicing
B2: recombinant HMGA1b (natural protein, UniProt P17096-2 1-96, looked up)
chain: MSESSSKSSQPLASKQEKDGTEKRGRGRPRKQPPKEPSEVPTPKRPRGRPKGSKNKGAAKTRKTTTTPGRKPRGRPKKLEKEEEEGISQESSEEEQ
notes: HMGA1b, isoform of HMGA1 from alternative splicing

Assays:
[1] = molecular target: GST-NPM1 1-295 (full length) (UniProt P06748); test: pull-down; GST pull-down with HA-tagged full length HMGA proteins, both detected with the same antibody (supplementary Fig. S2)
[2] = molecular target: HMGA1, endogenous in HepG2 cells (human (endogenous in HepG2)) (UniProt P17096); test: co-IP; HepG2 lysate (1 mg) on protein G Sepharose with immobilised anti-HMGA1 or anti-HMGA2 antibody; 25 mM Tris/HCl pH 8, 0.5% NP40, 10% glycerol, 125 mM NaCl; 3 h at 4°C; NPM1 detected by western blot
[3] = molecular target: T1, HMGA1a 1-51; test: far-Western, overlay or dot blot; HMGA proteins and HMGA1a truncated forms separated by SDS-PAGE and blotted; probe: in vitro translated [35S]-labelled full length NPM1 (1-295); fluorography; only the target purified
[4] = molecular target: B1; test: as above
[5] = molecular target: HMGA1a 1-79 (UniProt P17096); test: as above
[6] = molecular target: HMGA1b of the GST pull-down with EtBr (UniProt P17096); test: pull-down; GST pull-down with increasing concentrations of EtBr (supplementary Fig. S3); plasmid DNA used to in vitro translate NPM1 is present
[7] = molecular target: GST-NPM1 1-295 (full length) (UniProt P06748); test: condition: only salt concentration above 150 mM (NaCl series up to 300 mM); pull-down; full length GST-NPM1 with recombinant HMGA1a or HMGA2 in a series of 50 to 300 mM NaCl; here the samples above 150 mM salt; both purified
[8] = molecular target: GST-NPM1 260-295 (UniProt P06748); test: pull-down; GST-fused NPM1 forms as bait with recombinant HMGA proteins; bound proteins seen by western blot with anti-HMGA1 and anti-HMGA2 antibodies; both purified
[9] = molecular target: GST-NPM1 1-117 (UniProt P06748); test: as above
[10] = molecular target: GST-NPM1 187-295 (UniProt P06748); test: as above

binding [1]: binds
Molecule: HA-HMGA1a (HA-tagged full length HMGA1a) (from UniProt P17096-1 1-107)

binding [2]: binds
Molecule: nucleophosmin (NPM1), endogenous in HepG2 cells (from UniProt P06748 1-294)

binding [3]: no binding | binding [4]: binds | binding [5]: binds | binding [6]: binds
Molecule: in vitro transcribed, translated and [35S]-radiolabelled full length NPM1 (1-295) (from UniProt P06748 1-294)

Molecule: B1
binding [7]: no binding | binding [8]: no binding | binding [9]: no binding | binding [10]: no binding

Molecule: B2
binding [8]: no binding | binding [9]: no binding | binding [10]: no binding
